Results: PMC4336329 (PLoS ONE, 2015)
Screen size: about 310,000 compounds; about 14,000 (4.5%) showed an effect of 50% or more. The effect is printed as a negative number. Some of the results follow.

What follows are molecules tested against human ether-à-go-go-related gene (hERG) potassium channel (human, UniProt Q12809) (assay: primary screen, population patch clamp on CHO cells stably expressing hERG).
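Also: peak tail current of the secondary pulse compared with the same well before compound.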

Sequence of human ether-à-go-go-related gene (hERG) potassium channel (Q12809 whole entry, looked up): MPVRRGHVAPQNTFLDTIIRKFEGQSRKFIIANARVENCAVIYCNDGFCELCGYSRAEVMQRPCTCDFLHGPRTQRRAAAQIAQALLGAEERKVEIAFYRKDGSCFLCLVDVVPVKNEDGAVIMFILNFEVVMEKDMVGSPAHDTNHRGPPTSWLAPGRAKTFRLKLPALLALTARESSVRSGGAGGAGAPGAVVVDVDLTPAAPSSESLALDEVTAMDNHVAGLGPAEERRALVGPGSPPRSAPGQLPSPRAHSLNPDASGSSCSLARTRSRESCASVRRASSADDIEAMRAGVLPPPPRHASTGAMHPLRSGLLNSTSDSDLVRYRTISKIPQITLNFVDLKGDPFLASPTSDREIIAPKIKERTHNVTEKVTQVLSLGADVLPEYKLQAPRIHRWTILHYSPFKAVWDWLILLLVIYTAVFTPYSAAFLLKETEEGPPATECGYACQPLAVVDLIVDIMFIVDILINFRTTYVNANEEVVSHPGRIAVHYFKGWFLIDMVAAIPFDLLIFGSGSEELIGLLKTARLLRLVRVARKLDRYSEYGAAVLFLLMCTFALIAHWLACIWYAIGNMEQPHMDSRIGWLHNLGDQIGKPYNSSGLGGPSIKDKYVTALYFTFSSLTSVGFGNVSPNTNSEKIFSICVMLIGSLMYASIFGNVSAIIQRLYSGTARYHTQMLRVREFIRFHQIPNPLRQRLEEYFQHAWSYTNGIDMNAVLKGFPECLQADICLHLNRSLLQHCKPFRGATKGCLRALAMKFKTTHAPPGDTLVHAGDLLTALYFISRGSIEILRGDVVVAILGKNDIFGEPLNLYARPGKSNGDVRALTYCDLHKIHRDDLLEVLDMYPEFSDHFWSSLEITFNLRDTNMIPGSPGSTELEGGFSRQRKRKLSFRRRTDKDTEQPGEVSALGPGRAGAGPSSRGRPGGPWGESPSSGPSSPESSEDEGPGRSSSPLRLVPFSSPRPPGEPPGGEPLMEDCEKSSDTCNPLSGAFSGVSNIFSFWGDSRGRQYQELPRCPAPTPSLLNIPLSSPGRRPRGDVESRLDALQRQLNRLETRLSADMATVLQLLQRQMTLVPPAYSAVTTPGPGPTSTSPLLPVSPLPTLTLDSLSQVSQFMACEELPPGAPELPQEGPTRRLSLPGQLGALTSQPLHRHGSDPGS

Compound | hERG current change (%, negative = inhibition) at 10uM [%]
O=C(NCc1nc2ccccc2[nH]1)c1ccccc1F | 19.1
Cc1cc(C(=O)C(C)OC(=O)C2=NNC(=O)CC2)c(C)n1-c1ccc(OC(F)F)cc1 (stereo not drawn) | -73.3
CCN(c1cccc(C)c1)S(=O)(=O)c1ccc(-n2cccn2)cc1 | -1.6
C/C(CC(=O)Nc1ccc2c(c1)OCCO2)=N\NC(=O)c1cccc(O)c1 | 14.3
O=C(Nc1ccc(Br)cc1)c1cccc(OC(=S)N2CCOCC2)c1 | 17
Brc1ccc(C=Nc2ccc(Nc3ccccc3)cc2)s1 | 9.59
Cc1nc(SCC(=O)NC2CC2)c2c(C)c(C)sc2n1 | 6.21
Cc1ccccc1NC(=O)CSc1nn2c(=O)c(C)nnc2s1 | 8.72
COc1ccc(NC(=O)c2c([N+](=O)[O-])c(C(C)(C)C)nn2C)cc1 | 10.4
O=C(CSC1=NS(=O)(=O)c2cc(F)ccc2N1)NCc1ccc(F)cc1 | -9.82
Cn1cnnc1SCC(=O)c1c(N)n(Cc2ccccc2)c(=O)n(C)c1=O | 20.4
COc1ccccc1-n1nnnc1SCC(=O)Nc1ccccc1 | 17
Cc1oc(-c2cc(F)ccc2F)nc1CN1CCC(C(=O)N2CCOCC2)CC1 | -42.8
CC(c1nnnn1C(C)(C)C)N(Cc1cccnc1)Cc1ccccc1Cl (stereo not drawn) | -52.3
Cc1nc(-c2cccc(S(=O)(=O)N3CCCCCC3)c2)cs1 | -23.2
COCCCN=Cc1c(C)[nH]n(-c2ccc(Br)cc2Br)c1=O | 20.4
Cc1c(OC(C)C(=O)N2C[C@H]3C[C@@H](C2)c2cccc(=O)n2C3)ccc2c3c(c(=O)oc12)CCCC3 (stereo partly drawn) | -22.2
CCCS(=O)(=O)N1CCC(C(=O)NCCN2CCCC2)CC1 | -7.65
COc1ccc(NC(=O)CSc2ccccc2)cn1 | 29.8

Compound | hERG current change (%, negative = inhibition) at 10uM [%]
O=C(CSc1ccc(-c2ccccn2)nn1)N1CCc2ccccc21 | 3.29
O=C(Nc1ccc(F)c(Cl)c1)Nc1ccc(Cl)cn1 | 8.86
N#Cc1cccc(CN2CCCN(Cc3ccc(F)cc3)S2(=O)=O)c1 | -48
CN(C(=O)C1CCCO1)c1nnc(-c2cnccn2)s1 (stereo not drawn) | -1.46
Cc1ccc2cc(C)c(SCC(=O)Nc3cc(C)on3)nc2c1 | 20.9
Cc1cc(NC(=O)COC(=O)COc2ccc3c(c2)CCC3)no1 | 19.6
C=CCSc1nc2c(c(=O)n(C)c(=O)n2C)n1CC | -2.18
COCCN(Cc1cc2cc3c(cc2nc1Cl)OCO3)C(C)=O | 3.81
Cc1cc(C)nc(NC2=NCCS2)n1 | 22.8
O=C(CSc1ccccc1)N1CCc2ccccc21 | -1.34
CC1CC(N(C(=O)c2ccc(Cl)cc2)c2ccccc2)c2ccccc2N1C(=O)c1ccco1 (stereo not drawn) | -1.8
COc1ccc(CC(=O)NNS(=O)(=O)c2ccc3ccccc3c2)cc1OC | 11
CCN(C(=O)CSc1nc2ccc(OC)cc2[nH]1)c1c(N)n(Cc2ccccc2)c(=O)[nH]c1=O | 12.8
O=C(CCC1CC(=O)Nc2ccccc21)NCc1ccc(F)cc1 (stereo not drawn) | -17.6
Cc1oc(C(C)(C)C)cc1C(=O)NC(Cc1ccccc1)C(=O)O (stereo not drawn) | 5.73
CCOC(=O)N1CCN(C2CCCN(C(=O)c3cccc(Cl)c3)C2)CC1 (stereo not drawn) | -0.193
CC12CC3(C)CC(C)(C1)CC(C(N)=O)(C2)C3 | 22.7
CC(=O)Nc1ccc(N(C(=O)Cc2cccs2)C(C(=O)NC2CCCC2)c2ccncc2)cc1 (stereo not drawn) | 9.17
O=C(NCc1n[nH]c(=S)n1-c1cccc(Cl)c1)c1ccc(S(=O)(=O)N2CCCCC2)cc1 | 12.7

Compound | hERG current change (%, negative = inhibition) at 10uM [%]
O=C(NC1CCCC1)C(c1ccncc1)N(C(=O)c1csnn1)c1cccc(Cl)c1 (stereo not drawn) | -7.32
CCC1CCCCN1S(=O)(=O)c1c(C)n(C)c(=O)n(C)c1=O (stereo not drawn) | 2.51
Nc1ncnc2c1ncn2CCc1ccccc1 | 11.9
O=C(NNC(=O)c1cncc(Br)c1)c1ccncc1 | 8.16
C=CCn1c(SCC(=O)NCC2CCCO2)nc2scc(-c3ccccc3)c2c1=O (stereo not drawn) | -15.1
NS(=O)(=O)c1ccc(CCNC(=O)COC(=O)COc2cccc(C(F)(F)F)c2)cc1 | -11.8
Cc1c(C(=O)N2CC(C)OC(C)C2)sc2nc(-c3ccccc3)cn12 (stereo not drawn) | -15.2
Cc1ccc(SCc2cc(=O)[nH]c(/N=C(\N)Nc3ccc(C)c(C)c3)n2)cc1 | -5.05
COc1ccccc1C(=O)N1CCCC1(C#N)c1ccccc1 (stereo not drawn) | -3.96
COC(=O)C1=C(C)NC(=O)NC1c1ccc(N2CCC(c3ccccc3)=N2)cc1 (stereo not drawn) | 39.7
Cc1cccc(C)c1NC(=O)COc1ccc2c(C)c(Cc3ccccc3)c(=O)oc2c1 | -8.46
CC(NC(=O)c1ccccc1NC(=O)CN1CCN(c2ccccc2O)CC1)c1ccccc1 (stereo not drawn) | -6.31
NS(=O)(=O)c1ccc(NC(=O)Cc2cccs2)cc1 | 15
CC(C)(C)C(=O)Nc1c2c(nn1-c1ccccc1)CSC2 | 1.98
Fc1ccc(NCc2n[nH]c(=S)n2Cc2ccccc2)cc1 | -19.7
CC(=O)Nc1ccc(NC(=O)CSc2nnc(NC(=O)c3ccc(Br)o3)s2)cc1 | -0.661
O=C(Nc1ccccc1)Nc1c(F)cccc1F | 13.2
O=C(Cc1ccsc1)NNC(=O)c1ccccc1O | 7.87
Cc1c(NC(=O)Cn2nc(C(=O)O)c3ccccc3c2=O)c(=O)n(-c2ccccc2)n1C | -16.8
